# Experimental data taken from PubChem BioAssay AID504339 (National Center for Advancing Translational Sciences (NCATS), 2011).
# The campaign covered roughly 390,000 compounds. About 17,000 (4.4%) were called active. The inconclusive results got no clear call from the source; some entries with a clear call stand among them for comparison. The call rests on the fitted dose curve; in most records, active means well fitted inhibition curve with a large enough effect; inconclusive means small, poorly fitted or top-dose-only effect; inactive means no such curve, though single readings can be large or run the other way. Potencies beside an inconclusive call are fits to weak or partial responses and may not hold up.
# Target: Lysine-specific demethylase 4A (Homo sapiens) (UniProt O75164)
# UniProt O75164, sequence (O75164 whole entry, looked up, the tested form may be a part): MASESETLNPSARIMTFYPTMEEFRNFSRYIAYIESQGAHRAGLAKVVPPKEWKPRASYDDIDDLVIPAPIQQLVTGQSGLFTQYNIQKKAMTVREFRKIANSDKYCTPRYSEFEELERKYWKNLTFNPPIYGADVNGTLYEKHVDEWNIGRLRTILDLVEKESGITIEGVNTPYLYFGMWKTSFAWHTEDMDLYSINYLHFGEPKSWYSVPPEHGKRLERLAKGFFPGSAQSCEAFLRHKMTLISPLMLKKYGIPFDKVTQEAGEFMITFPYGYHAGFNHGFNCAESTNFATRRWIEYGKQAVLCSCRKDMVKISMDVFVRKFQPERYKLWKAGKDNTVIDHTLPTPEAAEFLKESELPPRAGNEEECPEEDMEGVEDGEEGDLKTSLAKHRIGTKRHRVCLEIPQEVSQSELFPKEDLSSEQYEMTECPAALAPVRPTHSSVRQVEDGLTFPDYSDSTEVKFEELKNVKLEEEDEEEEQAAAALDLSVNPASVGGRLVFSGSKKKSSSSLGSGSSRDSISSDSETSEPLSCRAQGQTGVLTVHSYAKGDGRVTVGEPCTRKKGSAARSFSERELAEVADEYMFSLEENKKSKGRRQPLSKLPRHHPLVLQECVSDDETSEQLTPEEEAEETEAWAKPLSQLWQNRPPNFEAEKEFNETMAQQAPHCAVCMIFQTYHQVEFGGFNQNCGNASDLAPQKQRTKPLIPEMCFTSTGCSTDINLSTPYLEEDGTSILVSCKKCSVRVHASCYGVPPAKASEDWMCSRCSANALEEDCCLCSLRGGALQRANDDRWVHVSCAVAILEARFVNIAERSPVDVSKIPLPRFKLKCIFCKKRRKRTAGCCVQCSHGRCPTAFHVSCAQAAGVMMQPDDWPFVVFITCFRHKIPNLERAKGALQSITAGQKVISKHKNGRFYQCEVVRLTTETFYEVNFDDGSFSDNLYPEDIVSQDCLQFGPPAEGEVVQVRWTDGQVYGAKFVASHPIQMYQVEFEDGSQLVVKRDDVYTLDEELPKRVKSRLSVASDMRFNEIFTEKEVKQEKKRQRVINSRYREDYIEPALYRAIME
# Test: qHTS Assay for Inhibitors of JMJD2A-Tudor Domain; further: nearly all actives have a fitted effect of over 50% in size
# Conditions: AlphaScreen JMJD2A-Tudor / H3K4me3 peptide binding; series mostly up to 114 µM
# Potency means the concentration at half of the fitted maximal effect; tags describe the fitted curve by direction and shape.
row,Structure (SMILES),Potency
1,Cc1ccc(C(C(=O)NCc2ccco2)N(Cc2ccco2)C(=O)CNC(=O)c2ccco2)cc1 (stereo not given),"inconclusive: 89.1 µM [inhibitor, single point]"
2,CN(C)c1ccc(C2/C(=C(/O)c3ccccc3)C(=O)C(=O)N2CCCC(=O)O)cc1 (stereo not given),"inconclusive: 28.2 µM [inhibitor, single point]"
3,CCOC(=O)c1c(CN(C)C)n(-c2ccccc2)c2cc(Br)c(OC)cc12,"inconclusive: 70.8 µM [inhibitor, single point]"
4,COC(=O)CSC1=C(C#N)C(=O)NC(c2ccccc2)S1 (stereo not given),"inconclusive: 39.8 µM [inhibitor, single point]"
5,COc1ccc(C(C)=O)cc1COC(=O)CCNS(=O)(=O)c1ccc(C)cc1,inactive
6,Cc1oc(C(=O)O)cc1CSCc1cc(C(=O)O)c(C)o1,active: 89.1 µM
7,Cc1cc(Cn2nc(C(=O)NCc3cccs3)cc2-c2ccccc2)on1,inactive
8,COc1ccc(N2CCN(CC(=O)NC(C)c3ccccc3)CC2)cc1 (stereo not given),inactive
9,CC(=O)Nc1ccc(S(=O)(=O)NC(C(=O)O)C2=CCC=CC2)cc1 (stereo not given),"inconclusive: 79.4 µM [inhibitor, single point]"
10,COc1ccc(-n2c(Cc3cccn3C)nnc2SCC(=O)N2CCCc3ccccc32)cc1,"inconclusive: 50.1 µM [inhibitor, partial curve]"
11,COc1ccccc1CNC(=O)c1ccc(-c2nc(CS(=O)(=O)c3ccc(C)cc3)c(C)o2)cc1,inactive
12,Nc1ccc2nc(-c3ccccc3)[nH]c2c1,inactive
13,Cc1ccc(CNC(=O)CCCc2nnc3n(C)c(=O)c4sccc4n23)cc1,inactive
14,Cc1ccc(CN2CCN(/N=C/c3cccnc3)CC2)c(C)c1,"inconclusive: 39.8 µM [inhibitor, partial curve]"
15,Cc1cc2nc(-c3ccc(SCc4ccccn4)nc3)[nH]c2cc1C,"inconclusive: 17.8 µM [inhibitor, partial curve]"
16,Cc1cc(OCCn2cc(/C(N)=N/O)c3ccccc32)ccc1Cl,"inconclusive: 50.1 µM [inhibitor, partial curve]"
17,Cc1cc(C)c2c(N)c(C(=O)N/N=C/c3ccccc3)sc2n1,inactive
18,COC(=O)C1=C[C@@H](C(=O)OC)C2C3=C(C(=O)[C@@]2(C)NC(=O)c2ccccc2)[C@H](C)[C@@H]2C(=O)N(C)C(=O)[C@@H]2[C@@H]3C1 (stereo not given in full),inactive
19,Cc1oc2c(c1C(=O)Nc1cccc3ccccc13)CCCC2,"inconclusive: 3.55 µM [inhibitor, single point]"
20,COc1ccc(C(=O)COC(=O)CCCC(=O)Nc2cc(C(F)(F)F)ccc2Cl)cc1,inactive
